According to paper PMC4336329 (PLoS ONE, 2015):
Screen size: about 310,000 compounds; about 2,200 (0.71%) showed an effect of 50% or more. Effects have a minus sign here. Some of the results follow.

Target: human ether-à-go-go-related gene (hERG) potassium channel (human, UniProt Q12809)
Experiment: primary screen, population patch clamp on CHO cells stably expressing hERG

Chain of human ether-à-go-go-related gene (hERG) potassium channel (Q12809 whole entry, looked up): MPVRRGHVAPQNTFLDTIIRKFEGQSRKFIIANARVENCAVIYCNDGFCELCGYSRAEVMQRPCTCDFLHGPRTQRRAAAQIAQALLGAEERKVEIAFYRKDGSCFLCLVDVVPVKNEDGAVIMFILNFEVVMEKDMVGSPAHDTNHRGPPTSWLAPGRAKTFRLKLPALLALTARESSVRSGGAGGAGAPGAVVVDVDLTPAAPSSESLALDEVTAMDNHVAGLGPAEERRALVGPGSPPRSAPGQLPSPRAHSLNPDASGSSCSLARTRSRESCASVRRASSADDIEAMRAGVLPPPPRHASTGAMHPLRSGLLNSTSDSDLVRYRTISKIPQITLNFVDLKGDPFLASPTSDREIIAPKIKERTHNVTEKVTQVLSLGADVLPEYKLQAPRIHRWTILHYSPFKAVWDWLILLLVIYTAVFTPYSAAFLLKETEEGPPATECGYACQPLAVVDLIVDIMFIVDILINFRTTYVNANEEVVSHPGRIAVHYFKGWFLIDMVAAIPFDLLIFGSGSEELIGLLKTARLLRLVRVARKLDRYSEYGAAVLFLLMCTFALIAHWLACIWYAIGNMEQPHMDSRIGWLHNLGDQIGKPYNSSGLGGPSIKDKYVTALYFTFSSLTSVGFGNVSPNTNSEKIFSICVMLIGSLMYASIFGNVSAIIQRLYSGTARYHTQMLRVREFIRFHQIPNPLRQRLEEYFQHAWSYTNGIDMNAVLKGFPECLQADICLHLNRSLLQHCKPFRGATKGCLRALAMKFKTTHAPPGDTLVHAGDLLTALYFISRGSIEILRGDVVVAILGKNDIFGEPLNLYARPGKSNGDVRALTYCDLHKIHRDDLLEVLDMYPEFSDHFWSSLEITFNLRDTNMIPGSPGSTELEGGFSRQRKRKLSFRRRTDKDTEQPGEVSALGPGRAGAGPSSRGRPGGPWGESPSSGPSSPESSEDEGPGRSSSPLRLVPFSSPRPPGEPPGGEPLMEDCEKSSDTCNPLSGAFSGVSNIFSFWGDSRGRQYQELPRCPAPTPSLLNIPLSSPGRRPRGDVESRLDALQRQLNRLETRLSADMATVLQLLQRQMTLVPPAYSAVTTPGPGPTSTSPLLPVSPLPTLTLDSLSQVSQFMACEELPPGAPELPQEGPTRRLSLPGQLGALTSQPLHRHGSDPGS

**Q.** Which “hERG current change (%, negative = inhibition) at 1uM” value does the source give for `CCNC(=S)NNC(=O)c1ccc(OC)cc1` here?
**A.** 10.2%

**Q.** With `CCCN(C(=O)C(C)Oc1cccc(Cl)c1)c1c(N)n(Cc2ccccc2)c(=O)[nH]c1=O` (centres unmarked) as the molecule, how does the “hERG current change (%, negative = inhibition) at 1uM” value read?
**A.** 8.88%

**Q.** `COc1cccc(CN2CC(C(=O)NCCc3ccccc3C(F)(F)F)CCC2=O)c1` (centres unmarked) was tested. Which “hERG current change (%, negative = inhibition) at 1uM” value did it give?
**A.** 17.3%

**Q.** How did the “hERG current change (%, negative = inhibition) at 1uM” value turn out when `Cc1ccc(Nc2c([N+](=O)[O-])c(=O)oc3ccccc23)cc1C` was run?
**A.** 9.91%

**Q.** With `Cc1ccccc1C(=O)NC1CCN(CC(=O)Nc2ccc(N(C)C)cc2)CC1` as the molecule, how does the “hERG current change (%, negative = inhibition) at 1uM” value read?
**A.** 21.8%

**Q.** With `Cc1ccc(Nc2nc(CSc3nnnn3-c3ccccc3)cc(=O)[nH]2)cc1` as the molecule, how does the “hERG current change (%, negative = inhibition) at 1uM” value read?
**A.** 5.08%

**Q.** Which “hERG current change (%, negative = inhibition) at 1uM” value does the source give for `CCOC(=O)CSc1ccc(S(=O)(=O)N(CC)CC)cc1[N+](=O)[O-]` here?
**A.** 1.42%

**Q.** For `O=C(Cc1ccccc1)Nc1ncccc1Cl`, which “hERG current change (%, negative = inhibition) at 1uM” value is on record?
**A.** 11%

**Q.** `O=C(CN(C(=O)c1csnn1)c1cccc(Cl)c1)NC1CCCC1` was tested. Which “hERG current change (%, negative = inhibition) at 1uM” value did it give?
**A.** 2.99%

**Q.** Which “hERG current change (%, negative = inhibition) at 1uM” value does the source give for `CCOc1ccc(NC(=O)CCC(=O)NNS(=O)(=O)c2ccccc2[N+](=O)[O-])cc1` here?
**A.** 8.59%

**Q.** For `COc1ccc2c(C)nc(Nc3nc(-c4ccccc4)cc(=O)[nH]3)nc2c1`, which “hERG current change (%, negative = inhibition) at 1uM” value is on record?
**A.** 5.49%

**Q.** For `Cc1ccc(-n2ncc3c(=O)n(CC(=O)NC4CCCC4)cnc32)cc1C`, which “hERG current change (%, negative = inhibition) at 1uM” value is on record?
**A.** 16.2%

**Q.** Which “hERG current change (%, negative = inhibition) at 1uM” value does the source give for `Cc1ccc2cc(CCNC(=O)C(=O)c3c(C)[nH]c4ccccc34)c(=O)[nH]c2c1` here?
**A.** -0.597%

**Q.** For `CC(C)(C)CC(C)(C)NC(=S)Nc1ccc(S(=O)(=O)N2CCOCC2)cc1`, which “hERG current change (%, negative = inhibition) at 1uM” value is on record?
**A.** 2.38%

**Q.** With `N#Cc1nc(-c2cccs2)oc1N1CCN(Cc2ccccc2)CC1` as the molecule, how does the “hERG current change (%, negative = inhibition) at 1uM” value read?
**A.** 9.11%

**Q.** Which “hERG current change (%, negative = inhibition) at 1uM” value does the source give for `COc1ccc(NC(=O)CC2C(=O)N(c3cccc(C)c3)C(=O)N2C2CCCCC2)cc1` (centres unmarked) here?
**A.** -4.48%

**Q.** How did the “hERG current change (%, negative = inhibition) at 1uM” value turn out when `O=C(Cc1ccc(Cl)cc1)NCCc1cnc[nH]1` was run?
**A.** 15.2%

**Q.** Which “hERG current change (%, negative = inhibition) at 1uM” value does the source give for `COC(=O)C1=CN(Cc2ccc(OC)c(OC)c2)C=C(C(=O)OC)C1c1ccc(O)cc1` here?
**A.** 13.8%

**Q.** With `CC(C)N(CCCNC(=O)c1nn(C)c2c1CS(=O)(=O)c1ccccc1-2)Cc1ccccc1` as the molecule, how does the “hERG current change (%, negative = inhibition) at 1uM” value read?
**A.** -0.191%

**Q.** `CCn1nnc2cc(C(=O)Nc3cc(OC)cc(OC)c3)ccc21` was tested. Which “hERG current change (%, negative = inhibition) at 1uM” value did it give?
**A.** 19.3%

**Q.** How did the “hERG current change (%, negative = inhibition) at 1uM” value turn out when `Cc1ccccc1NC(=O)CN(c1ccc(F)cc1)S(C)(=O)=O` was run?
**A.** 9.26%

**Q.** How did the “hERG current change (%, negative = inhibition) at 1uM” value turn out when `CC(=O)N(CC(=O)Nc1nn(-c2ccccc2)nc1C(N)=O)Cc1ccccc1` was run?
**A.** 7.29%

**Q.** `CC(C)CC(NC(=O)C1CCC(C)CC1)C(=O)Nc1cccnc1` (centres unmarked) was tested. Which “hERG current change (%, negative = inhibition) at 1uM” value did it give?
**A.** 11.8%

**Q.** For `Cc1cc(C)nc(NC(=O)c2ccc(Cl)c(Cl)c2)n1`, which “hERG current change (%, negative = inhibition) at 1uM” value is on record?
**A.** -3.31%

**Q.** With `COc1ccc(N2CCN(CCNC(=O)CCNS(=O)(=O)c3cccs3)CC2)cc1` as the molecule, how does the “hERG current change (%, negative = inhibition) at 1uM” value read?
**A.** 8.95%

**Q.** How did the “hERG current change (%, negative = inhibition) at 1uM” value turn out when `Cc1cc(C)c(CN2CCC(CO)(CCOc3ccccc3)CC2)cc1C` was run?
**A.** -0.659%

**Q.** With `COc1ccc(CN(Cc2cc3ccc(C)cc3[nH]c2=O)Cc2nnnn2C2CCCC2)cc1` as the molecule, how does the “hERG current change (%, negative = inhibition) at 1uM” value read?
**A.** 13.2%

**Q.** For `CCN1C(=O)CS/C1=N\S(=O)(=O)c1ccccc1`, which “hERG current change (%, negative = inhibition) at 1uM” value is on record?
**A.** -1.91%

**Q.** `COc1cc(Cl)c(C)cc1NC(=O)COC(=O)C1=COCCO1` was tested. Which “hERG current change (%, negative = inhibition) at 1uM” value did it give?
**A.** 18.3%

**Q.** `O=C(Nc1ccccc1)c1cccc(N2C(=O)C3C4C=CC(C5CC45)C3C2=O)c1` (centres unmarked) was tested. Which “hERG current change (%, negative = inhibition) at 1uM” value did it give?
**A.** -1.99%

**Q.** With `CC(c1ccccc1)N(CC(=O)NC1CCCCC1)S(=O)(=O)c1cccc(C(F)(F)F)c1` (centres unmarked) as the molecule, how does the “hERG current change (%, negative = inhibition) at 1uM” value read?
**A.** -4.81%

**Q.** Which “hERG current change (%, negative = inhibition) at 1uM” value does the source give for `CCCCNC(=O)C(=O)NC(C)CCc1ccccc1` (centres unmarked) here?
**A.** 7.5%

**Q.** With `CCOC(=O)c1cc(-c2ccc(/C=C3/C(=O)N(c4ccc(C(=O)O)cc4)N=C3C)o2)ccc1Cl` as the molecule, how does the “hERG current change (%, negative = inhibition) at 1uM” value read?
**A.** 4.57%

**Q.** For `CNC(=O)/C(=C\c1ccc2c(c1)OCO2)NC(=O)c1ccc(Br)cc1`, which “hERG current change (%, negative = inhibition) at 1uM” value is on record?
**A.** -2.73%

**Q.** How did the “hERG current change (%, negative = inhibition) at 1uM” value turn out when `COc1ccc(-c2csc(NC(=O)CSc3nnnn3C)n2)c(OC)c1` was run?
**A.** 7.91%

**Q.** With `CCN(CC(=O)Nc1ccccc1OC)C(=O)c1cc(-c2ccccc2)nn1-c1ccccc1` as the molecule, how does the “hERG current change (%, negative = inhibition) at 1uM” value read?
**A.** -5.49%

**Q.** How did the “hERG current change (%, negative = inhibition) at 1uM” value turn out when `O=C1c2ccccc2C(=O)N1CCCSc1nc2ccccc2o1` was run?
**A.** 15.4%

**Q.** `CCc1nccn1S(=O)(=O)c1ccc2ccc(C)cc2c1` was tested. Which “hERG current change (%, negative = inhibition) at 1uM” value did it give?
**A.** 9.91%

**Q.** With `CN(CC(=O)Nc1ccc(N2CCOCC2)cc1)CC(=O)Nc1cccc(C#N)c1` as the molecule, how does the “hERG current change (%, negative = inhibition) at 1uM” value read?
**A.** 11.4%

**Q.** For `CCOC(=O)C1(CCc2ccccc2)CCN(C(=O)C2CCCO2)CC1` (centres unmarked), which “hERG current change (%, negative = inhibition) at 1uM” value is on record?
**A.** 5.8%

**Q.** With `COc1ccccc1NC(=O)Nc1nc(CC(=O)Nc2ccc(OC)c(OC)c2)cs1` as the molecule, how does the “hERG current change (%, negative = inhibition) at 1uM” value read?
**A.** 6.03%

**Q.** With `CCOC(=O)c1cc(C(=O)NC(C)c2ccccc2)c(C)[nH]c1=O` (centres unmarked) as the molecule, how does the “hERG current change (%, negative = inhibition) at 1uM” value read?
**A.** 7.73%

**Q.** How did the “hERG current change (%, negative = inhibition) at 1uM” value turn out when `O=C1CCCN1S(=O)(=O)c1ccccc1` was run?
**A.** 5.5%

**Q.** `CCCc1nc(-c2cc3cc(C)ccc3[nH]c2=O)no1` was tested. Which “hERG current change (%, negative = inhibition) at 1uM” value did it give?
**A.** 9.86%
